Assay results taken from PubChem BioAssay AID720709 (National Center for Advancing Translational Sciences (NCATS), 2013).
Among all 360,000 compounds or so, about 520 (0.14%) were called active. The inconclusive results got no clear call from the source; some entries with a clear call stand among them for comparison. Calls follow the shape of the dose curve; as a rule, active = well fitted inhibition curve with a large enough effect; inconclusive = small, poorly fitted or top-dose-only effect; inactive = no such curve, though single readings can be large or run the other way. Potencies of inconclusive entries are left out as doubtful fits.
Also: nearly all actives have a fitted effect of over 50% in size.
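For activity change, negative = inhibition in this document: plate controls were vehicle for no effect and positive control for full effect.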
Potency is read from the fitted curve at half-maximal effect; tags tell the direction and shape of the fitted curve.

Each molecule was assayed against Rap guanine nucleotide exchange factor 3 (Homo sapiens) (UniProt O95398) (assay: qHTS for Antagonist of cAMP-regulated guanine nucleotide exchange factor 3 (EPAC1): primary screen). Conditions: EPAC1 GEF assay, Rap1b-BODIPY-GDP exchange fluorescence; activity change, negative = inhibition: at 115 µM (top of the series).
Chain of UniProt O95398 (O95398 whole entry, looked up): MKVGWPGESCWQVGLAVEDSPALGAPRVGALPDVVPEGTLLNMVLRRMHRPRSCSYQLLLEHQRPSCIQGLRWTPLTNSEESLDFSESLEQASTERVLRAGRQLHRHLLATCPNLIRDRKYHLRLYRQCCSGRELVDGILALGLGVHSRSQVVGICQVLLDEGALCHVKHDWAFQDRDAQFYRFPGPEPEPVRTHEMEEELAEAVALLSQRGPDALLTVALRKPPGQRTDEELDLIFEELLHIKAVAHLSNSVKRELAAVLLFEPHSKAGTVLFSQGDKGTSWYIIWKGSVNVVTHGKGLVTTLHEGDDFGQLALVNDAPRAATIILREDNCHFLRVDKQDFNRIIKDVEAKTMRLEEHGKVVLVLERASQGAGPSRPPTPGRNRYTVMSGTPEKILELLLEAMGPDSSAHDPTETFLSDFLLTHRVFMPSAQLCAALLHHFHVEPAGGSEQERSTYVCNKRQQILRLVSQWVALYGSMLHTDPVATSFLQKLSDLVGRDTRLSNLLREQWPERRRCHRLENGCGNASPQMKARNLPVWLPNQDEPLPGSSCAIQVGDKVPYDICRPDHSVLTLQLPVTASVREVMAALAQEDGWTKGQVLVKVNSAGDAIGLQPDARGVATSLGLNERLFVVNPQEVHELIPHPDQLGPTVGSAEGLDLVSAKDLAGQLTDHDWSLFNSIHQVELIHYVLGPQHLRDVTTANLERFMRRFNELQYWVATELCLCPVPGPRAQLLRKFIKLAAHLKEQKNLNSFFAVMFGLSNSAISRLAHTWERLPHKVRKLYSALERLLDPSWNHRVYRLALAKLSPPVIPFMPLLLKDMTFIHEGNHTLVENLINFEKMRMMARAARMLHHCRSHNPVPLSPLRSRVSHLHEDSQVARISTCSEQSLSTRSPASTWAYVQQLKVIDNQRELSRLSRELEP
For Cc1csc(NC(=O)c2cccc([N+](=O)[O-])c2C(=O)O)n1, the Potency was inconclusive [inhibitor, partial curve, poor fit]. In the case of CN(C[C@H](Cc1ccccc1)N(CCN(CCc1ccccc1)N=O)N=O)N=O, the “activity change, negative = inhibition” value is reported as inactive: -21.6%. CC(C)CC(=O)Nc1ccc(C(=O)CN2C(=O)NC3(CCOc4ccccc43)C2=O)cc1 (stereo unspecified) was tested, and the Potency was inconclusive [inhibitor, partial curve]. Cc1noc(C)c1CSc1ccccc1C(=O)OC(C)C(N)=O (stereo unspecified) was tested, and the Potency was inconclusive [inhibitor, single point]. With CCN1/C(=C/c2ccc3cc(C)ccc3[n+]2CC)Sc2ccccc21 the Potency was inconclusive [inhibitor, full curve]. In the case of Cc1ccc(S(=O)(=O)N2C[C@H]3[C@H]4C(=O)N(c5ccccc5)C(=O)[C@H]4C[C@H](OC(=O)NCC4CCCCC4)[C@@]3(O)C2)cc1, the “activity change, negative = inhibition” value is reported as inactive: -8.2%. O=C(c1sc2cc(F)ccc2c1Cl)N1CCN(c2ccccc2)CC1 was tested, and the Potency was inconclusive [inhibitor, partial curve, poor fit]. With CN(c1ccccc1)S(=O)(=O)c1cccc(NC(=O)C2CCCO2)c1 (stereo unspecified) the Potency was inconclusive [inhibitor, partial curve]. In the case of NS(=O)(=O)c1ccc(NC(=O)c2cccc(N3C(=O)c4ccccc4C3=O)c2)cc1, the Potency is reported as inconclusive [inhibitor, partial curve]. In the case of CCc1cccc(CC)c1NC(=O)CN1C2CCCC1CC(NC(=O)Nc1cccc(OC)c1)C2 (stereo unspecified), the Potency is reported as inconclusive [inhibitor, single point]. For O=c1ccc2c(-c3ccccc3)c3ccc(O)cc3oc-2c1, the “activity change, negative = inhibition” value was inactive: 148%. CC(C)(C)c1cc(-c2nc(N)nc(N)n2)c(O)c(C(C)(C)C)c1 was tested, and the Potency was inconclusive [inhibitor, full curve]. In the case of O=C(CCNS(=O)(=O)c1ccc2[nH]c(=O)oc2c1)Nc1ccccc1, the Potency is reported as inconclusive [inhibitor, partial curve]. For C=CCC[C@H](Cc1ccc(F)cc1)C(=O)OC[C@@H](C)NC(=O)[C@@H](CC=C)CC(=O)N[C@H](CO)Cc1ccccc1, the Potency was inconclusive [inhibitor, full curve]. With Nc1nnnn1/N=C/C(Br)=C/c1ccccc1 the Potency was inconclusive [inhibitor, partial curve, poor fit]. O=C1c2cccc3cccc(c23)C(=O)N1Nc1ccccc1 was tested, and the Potency was inconclusive [inhibitor, single point]. Cc1nc2cccc(C(=O)Oc3ccc([N+](=O)[O-])cc3)c2o1 was tested, and the Potency was inconclusive [inhibitor, single point]. CCOc1cc(/C=C2\SC(=S)N(NS(=O)(=O)c3ccccc3)C2=O)ccc1O was tested, and the Potency was inconclusive [inhibitor, full curve]. C=CC[C@@H](CC(=O)N(CCO)Cc1ccccc1)C(=O)N[C@H](COC(=O)[C@@H](CC=C)CC(=O)OC(C)(C)C)c1ccccc1 was tested, and the Potency was inconclusive [inhibitor, full curve, poor fit]. With Cc1cc(Br)cc(C=Nc2ccc(N3CCOCC3)cc2)c1O the Potency was inconclusive [inhibitor, single point]. O=C1NC(=Nc2ccccc2)S/C1=C\C=C\c1ccco1 was tested, and the Potency was inconclusive [inhibitor, partial curve]. With O=C(/C=C/c1ccc([N+](=O)[O-])cc1)Oc1ccc(/C=N/NC(=O)c2ccncc2)cc1 the Potency was inconclusive [inhibitor, full curve, poor fit]. CC1=NN(c2ccccc2)C(=O)/C1=C\c1c(C)[nH]n(-c2ccccc2)c1=O was tested, and the “activity change, negative = inhibition” value was inactive: 12.6%. With O=C1COc2ccc(C(=O)COC(=O)c3ccc([N+](=O)[O-])cc3Cl)cc2N1 the Potency was inconclusive [inhibitor, single point]. In the case of COc1cccc(N2CCN(c3ccc4nnc(CCC(=O)Nc5ccc(OC)c(OC)c5)n4n3)CC2)c1, the Potency is reported as inconclusive [inhibitor, single point]. With Cc1ccc(-n2nnnc2SCC(=O)NC2CCCc3ccccc32)c(C)c1 (stereo unspecified) the Potency was inconclusive [inhibitor, single point]. With CCOCCOc1cccc(C(=O)NC(C)c2ccc3ccccc3c2)c1 (stereo unspecified) the Potency was inconclusive [inhibitor, single point]. C[C@H](NC(=O)c1nc[nH]c1C(=O)N[C@@H](CCCCNC(=O)OC(C)(C)C)C(=O)OC(C)(C)C)c1ccccc1 was tested, and the Potency was inconclusive [inhibitor, full curve, poor fit]. For CCC(C(=O)NC1CCCC1)N(Cc1ccco1)C(=O)CNS(=O)(=O)c1ccccc1 (stereo unspecified), the “activity change, negative = inhibition” value was inactive: -27.9%. In the case of CC(=O)Oc1ccc2oc(/C=C/N(C)C)c([N+](=O)[O-])c2c1, the Potency is reported as inconclusive [inhibitor, single point]. For CCCCOc1ccc(CONS(=O)(=O)c2ccc(NC(C)=O)cc2)cc1Cl, the Potency was inconclusive [inhibitor, partial curve]. For O=C1C(=O)c2ccccc2C(O)=C1c1ccccc1F, the “activity change, negative = inhibition” value was inactive: -11.1%. CCN(Cc1ccncc1)Cc1c(O)ccc2ccccc12 was tested, and the Potency was inconclusive [inhibitor, single point]. In the case of COc1ccc(CCNC(=O)Cn2nnc(C(=O)Nc3ccc(Br)cc3)c2N)cc1OC, the Potency is reported as inconclusive [inhibitor, full curve, poor fit]. With CCOC(=O)N1CCN(c2c(N3CCN(C(=O)OCC)CC3)c(=O)c2=O)CC1 the Potency was inconclusive [inhibitor, full curve, poor fit]. In the case of COc1ccc(CNC(=O)c2nnn(-c3cccc(C(F)(F)F)c3)c2N)cc1, the Potency is reported as inconclusive [inhibitor, single point]. For COc1ccc(CNC(=O)CN(C)S(=O)(=O)c2ccc(Br)s2)cc1, the Potency was inconclusive [inhibitor, single point]. CCc1nnc(NC(=O)Nc2ccccc2OC)s1 was tested, and the “activity change, negative = inhibition” value was inactive: -2.94%. With CCOc1ncccc1C(=O)Nc1ccc(S(=O)(=O)Nc2nccs2)cc1 the activity change, negative = inhibition was inconclusive: -8.02% [inhibitor]. With CCN(C(=O)CCS(=O)(=O)c1ccc2c(c1)oc(=O)n2C)c1ccc(OC)cc1 the Potency was inconclusive [inhibitor, partial curve, poor fit]. For Cc1ccc(OC(C)C(=O)Nc2ccc(C)c(S(=O)(=O)Nc3ccc(C)cc3C)c2)cc1 (stereo unspecified), the Potency was inconclusive [inhibitor, full curve]. In the case of CCCN(CC(=O)Nc1ccccc1C)C(=O)C1CCN(S(=O)(=O)c2ccccc2C(F)(F)F)CC1, the Potency is reported as inconclusive [inhibitor, partial curve]. Cc1cccc(N2CCN(S(=O)(=O)c3ccc4c(c3)C(C)(C)C(=O)N4C)CC2)c1C was tested, and the Potency was inconclusive [inhibitor, single point]. In the case of Cc1ccc(NC(=O)Cn2c(=O)n(Cc3ccco3)c(=N)c3c4c(sc32)COC(C)(C)C4)cc1, the Potency is reported as inconclusive [inhibitor, partial curve]. With COCCNC(=O)CSc1nc(N)c(NC(=O)c2ccccc2F)c(=O)[nH]1 the Potency was inconclusive [inhibitor, full curve, poor fit]. For CC(=O)C(C(C)=O)C1(O)C(=O)c2ccccc2C1=O, the “activity change, negative = inhibition” value was inactive: -3.99%. In the case of O=S(=O)(c1ccccc1)N1CCN(C(=S)NCc2ccccc2)CC1, the Potency is reported as inconclusive [inhibitor, partial curve]. With CCc1ccc(NC(=O)C(C)Sc2nc(-c3ccco3)c(C#N)c(=O)[nH]2)cc1 (stereo unspecified) the Potency was inconclusive [inhibitor, full curve, poor fit]. For CN(C)CCCNc1cc(-c2ccccc2)nc2cc(-c3cccc(F)c3)nn12, the Potency was inconclusive [inhibitor, partial curve]. With CCCS(=O)(=O)c1c(S(=O)(=O)CCC)c2cnccn2c1C(=O)c1ccc(CC)cc1 the Potency was inconclusive [inhibitor, partial curve]. In the case of C/C(=N\NC(=O)c1ccn(C)n1)c1ccco1, the Potency is reported as inconclusive [inhibitor, single point]. With CCc1nn(C(CC)C(=O)NCC(C)c2ccccc2)c(=O)c2cc3occc3n12 (stereo unspecified) the Potency was inconclusive [inhibitor, single point]. In the case of COc1ccc(OCCn2c(N)nc3ccccc32)cc1, the Potency is reported as inconclusive [inhibitor, partial curve]. For CCOCCn1c(=NC(=O)c2ccc(S(=O)(=O)N3CCOCC3)cc2)sc2cc(S(N)(=O)=O)ccc21, the Potency was inconclusive [inhibitor, single point]. In the case of COC(=O)c1cc(Cl)cc(Cl)c1OS(=O)(=O)N(C)C, the “activity change, negative = inhibition” value is reported as inactive: 3.14%. With COc1ccc(/C=C(\NC(=O)c2ccc([N+](=O)[O-])cc2)C(=O)NCCN2CCOCC2)cc1 the “activity change, negative = inhibition” value was inactive: 3.67%. With Cc1ccc2cc3cc(C(=O)N4CC(C)CC(C)C4)oc3nc2c1 (stereo unspecified) the Potency was inconclusive [inhibitor, partial curve]. For Nc1ccc(N2CCOCC2)c2nonc12, the Potency was inconclusive [inhibitor, full curve]. In the case of COc1ccc(Nc2nc3cc(-c4ccccc4C)sc3c(=O)n2C)cc1OC, the Potency is reported as inconclusive [inhibitor, partial curve]. In the case of Cc1c(CCC(=O)O)c(=O)oc2c(C)c(OCc3ccccc3Cl)ccc12, the Potency is reported as inconclusive [inhibitor, single point]. Cn1ccnc1C(=O)c1ccc(Cl)c(S(=O)(=O)N2CCOCC2)c1 was tested, and the Potency was inconclusive [inhibitor, partial curve, poor fit].
